Laboratory results reported in the supplement of paper PMC10724272.
MIC of invasive clinical C. tropicalis isolates, CLSI broth microdilution (fluconazole 0.12-256 mg/L, up to 1,024 for the azole-resistant cluster and its neighbour group; other ranges not stated); higher = less susceptible. Call: susceptible or wild type [S] / resistant or non-wild type [R] by CLSI breakpoints or cut-offs; intermediate and dose-dependent carry no call. '<=' and '>=' at the end values are inferred; the source marks only some of them. Isolates are numbered anew.

These test systems were tested with CC[C@H](C)C[C@H](C)CCCCCCCCC(=O)N[C@H]1C[C@@H](O)[C@@H](NCCN)NC(=O)[C@@H]2[C@@H](O)CCN2C(=O)[C@H]([C@H](O)CCN)NC(=O)[C@H]([C@H](O)[C@@H](O)c2ccc(O)cc2)NC(=O)[C@@H]2C[C@@H](O)CN2C(=O)[C@H]([C@@H](C)O)NC1=O [caspofungin] (assay: CLSI broth microdilution.).

Test System	MIC
Candida tropicalis isolate 393 (ERG11 copies: 2, Erg11p: no key change)	0.03 mg/L [S]
Candida tropicalis isolate 96 (ERG11 copies: 2, Erg11p: no key change)	0.03 mg/L [S]
Candida tropicalis isolate 403 (ERG11 copies: 2, Erg11p: no key change)	0.06 mg/L [S]
Candida tropicalis isolate 191 (ERG11 copies: 2, Erg11p: no key change)	0.03 mg/L [S]
Candida tropicalis isolate 174 (ERG11 copies: 2, Erg11p: no key change)	0.03 mg/L [S]

These test systems were tested with CCCCCOc1ccc(-c2cc(-c3ccc(C(=O)N[C@H]4C[C@@H](O)[C@@H](O)NC(=O)[C@@H]5[C@@H](O)[C@@H](C)CN5C(=O)[C@H]([C@H](O)CC(N)=O)NC(=O)[C@H]([C@H](O)[C@@H](O)c5ccc(O)c(OS(=O)(=O)O)c5)NC(=O)[C@@H]5C[C@@H](O)CN5C(=O)[C@H]([C@@H](C)O)NC4=O)cc3)no2)cc1 [micafungin] (assay: CLSI broth microdilution.).

Test System	MIC
Candida tropicalis isolate 383 (ERG11 copies: 2, Erg11p: no key change)	0.06 mg/L [S]
Candida tropicalis isolate 305 (ERG11 copies: 2, Erg11p: no key change)	0.03 mg/L [S]
Candida tropicalis isolate 35 (ERG11 copies: 2, Erg11p: no key change)	0.06 mg/L [S]
Candida tropicalis isolate 399 (ERG11 copies: 2, Erg11p: no key change)	0.03 mg/L [S]
Candida tropicalis isolate 106 (ERG11 copies: 2, Erg11p: no key change)	0.03 mg/L [S]
Candida tropicalis isolate 322 (ERG11 copies: 2, Erg11p: no key change)	0.015 mg/L [S]
Candida tropicalis isolate 178 (ERG11 copies: 2, Erg11p: no key change)	0.015 mg/L [S]
Candida tropicalis isolate 223 (ERG11 copies: 8, Erg11p: Y132F, S154F (heterozygous))	0.03 mg/L [S]
Candida tropicalis isolate 197 (ERG11 copies: 2, Erg11p: no key change)	0.03 mg/L [S]
Candida tropicalis isolate 66 (ERG11 copies: 2, Erg11p: Y132F, S154F (heterozygous))	0.03 mg/L [S]
Candida tropicalis isolate 120 (ERG11 copies: 2, Erg11p: no key change)	0.03 mg/L [S]
Candida tropicalis isolate 73 (ERG11 copies: 2, Erg11p: no key change)	0.03 mg/L [S]
Candida tropicalis isolate 105 (ERG11 copies: 2, Erg11p: no key change)	0.03 mg/L [S]
Candida tropicalis isolate 396 (ERG11 copies: 2, Erg11p: Y132F, S154F (heterozygous))	0.03 mg/L [S]
Candida tropicalis isolate 251 (ERG11 copies: 2, Erg11p: no key change)	0.06 mg/L [S]
Candida tropicalis isolate 87 (ERG11 copies: 7, Erg11p: Y132F, S154F (heterozygous))	0.03 mg/L [S]
Candida tropicalis isolate 438 (ERG11 copies: 2, Erg11p: Y132F, S154F (heterozygous))	0.03 mg/L [S]
Candida tropicalis isolate 445 (ERG11 copies: 5, Erg11p: Y132F, S154F (heterozygous))	0.03 mg/L [S]

Test System	MIC
Candida tropicalis isolate 34 (ERG11 copies: 5, Erg11p: Y132F, S154F (heterozygous))	0.06 mg/L [S]
Candida tropicalis isolate 107 (ERG11 copies: 7, Erg11p: Y132F, S154F (heterozygous))	0.03 mg/L [S]
Candida tropicalis isolate 439 (ERG11 copies: 2, Erg11p: no key change)	0.03 mg/L [S]
Candida tropicalis isolate 159 (ERG11 copies: 2, Erg11p: no key change)	0.06 mg/L [S]
Candida tropicalis isolate 142 (ERG11 copies: 2, Erg11p: no key change)	1 mg/L [R]
Candida tropicalis isolate 331 (ERG11 copies: 2, Erg11p: no key change)	0.03 mg/L [S]
Candida tropicalis isolate 327 (ERG11 copies: 2, Erg11p: no key change)	0.03 mg/L [S]
Candida tropicalis isolate 384 (ERG11 copies: 2, Erg11p: no key change)	0.03 mg/L [S]
Candida tropicalis isolate 356 (ERG11 copies: 2, Erg11p: no key change)	0.03 mg/L [S]
Candida tropicalis isolate 259 (ERG11 copies: 4, Erg11p: Y132F, S154F (heterozygous))	0.03 mg/L [S]
Candida tropicalis isolate 254 (ERG11 copies: 2, Erg11p: no key change)	0.015 mg/L [S]
Candida tropicalis isolate 325 (ERG11 copies: 2, Erg11p: no key change)	0.03 mg/L [S]
Candida tropicalis isolate 376 (ERG11 copies: 2, Erg11p: no key change)	0.06 mg/L [S]
Candida tropicalis isolate 393 (ERG11 copies: 2, Erg11p: no key change)	0.03 mg/L [S]
Candida tropicalis isolate 96 (ERG11 copies: 2, Erg11p: no key change)	0.03 mg/L [S]
Candida tropicalis isolate 403 (ERG11 copies: 2, Erg11p: no key change)	0.03 mg/L [S]
Candida tropicalis isolate 191 (ERG11 copies: 2, Erg11p: no key change)	0.03 mg/L [S]
Candida tropicalis isolate 174 (ERG11 copies: 2, Erg11p: no key change)	0.03 mg/L [S]
